Laboratory results as given in patent US5854252A, “Dihalotriazolopyrimidine derivatives” (Shell Internationale Research Maatschappij B.V., priority 1993, dated 1998).
The name of at least one read-out is uncertain.

What was measured:
Fusarium culmorum = experiment: Activity against Fusarium in-vitro (FSI), Example 53(k); type: cell-based; conditions: 50 ppm, 5 days at 20° C.
Phytophthora infestans [1] = type: in vivo; conditions: tomato, protectant foliar spray, 1000 ppm
Phytophthora infestans [2] = type: in vivo; conditions: tomato, protectant foliar spray, 600 ppm

Compound | Fungicidal Activity FSI (disease control rating) (Fusarium culmorum) | Fungicidal Activity PIP (disease control rating) (Phytophthora infestans [1]) | PIP (disease control rating) (Phytophthora infestans [2])
Clc1ccccc1-c1c(Cl)nc2ncnn2c1Cl [Example 1, 5,7-dichloro-6-(2-chlorophenyl)-1,2,4-triazolo-[1,5a]pyrimidine] | 2 (greater than 80% disease control) | 1 (about 50-80% disease control) | –
Clc1ccccc1-c1c(Br)nc2ncnn2c1Br [Example 2, 5,7-dibromo-6-(2-chlorophenyl)-1,2,4-triazolo[1,5a]pyrimidine] | – | – | 2 (greater than 80% disease control)
COc1cccc(-c2c(Cl)nc3ncnn3c2Cl)c1 [Example 4] | 2 (greater than 80% disease control) | – | –
COc1ccccc1-c1c(Cl)nc2ncnn2c1Cl [Example 5] | 2 (greater than 80% disease control) | – | –
FC(F)(F)c1cccc(-c2c(Cl)nc3ncnn3c2Cl)c1 [Example 7] | 2 (greater than 80% disease control) | – | –
CC(C)c1ccc(-c2c(Cl)nc3ncnn3c2Cl)cc1 [Example 8] | 2 (greater than 80% disease control) | 2 (greater than 80% disease control) | –
FC(F)(F)Oc1ccc(-c2c(Cl)nc3ncnn3c2Cl)cc1 [Example 9] | 2 (greater than 80% disease control) | 1 (about 50-80% disease control) | –
Clc1nc2ncnn2c(Cl)c1-c1ccc2ccccc2c1 [Example 10] | 1 (about 50-80% disease control) | – | –
Fc1ccc(-c2c(Cl)nc3ncnn3c2Cl)cc1 [Example 11] | 2 (greater than 80% disease control) | 2 (greater than 80% disease control) | –
Clc1nc2ncnn2c(Cl)c1-c1ccc(Oc2ccccc2)cc1 [Example 12] | 1 (about 50-80% disease control) | 2 (greater than 80% disease control) | –
Clc1nc2ncnn2c(Cl)c1-c1ccc(-c2ccccc2)cc1 [Example 13] | 2 (greater than 80% disease control) | – | –
COc1ccc(-c2c(Cl)nc3ncnn3c2Cl)cc1OC [Example 14] | 1 (about 50-80% disease control) | – | –
Clc1nc2ncnn2c(Cl)c1-c1ccc(OCc2ccccc2)cc1 [Example 15] | – | 2 (greater than 80% disease control) | –
Fc1ccccc1-c1c(Cl)nc2ncnn2c1Cl [Example 16] | 2 (greater than 80% disease control) | 2 (greater than 80% disease control) | –
Fc1cccc(-c2c(Cl)nc3ncnn3c2Cl)c1 [Example 17] | 2 (greater than 80% disease control) | 2 (greater than 80% disease control) | –
Clc1nc2ncnn2c(Cl)c1-c1ccccc1Br [Example 18] | 2 (greater than 80% disease control) | 2 (greater than 80% disease control) | –
Clc1nc2ncnn2c(Cl)c1-c1ccc(Br)cc1 [Example 19] | 2 (greater than 80% disease control) | 2 (greater than 80% disease control) | –
COc1cccc(-c2c(Cl)nc3ncnn3c2Cl)c1OC [Example 21] | 2 (greater than 80% disease control) | 2 (greater than 80% disease control) | –
Clc1nc2ncnn2c(Cl)c1-c1cccc2ccccc12 [Example 23] | 1 (about 50-80% disease control) | – | –
CCOc1cccc(-c2c(Cl)nc3ncnn3c2Cl)c1OCC [Example 24] | 2 (greater than 80% disease control) | – | –
Clc1ccc(-c2c(Cl)nc3ncnn3c2Cl)cc1Cl [Example 25] | 1 (about 50-80% disease control) | – | –
Clc1nc2ncnn2c(Cl)c1-c1cccs1 [Example 26] | 2 (greater than 80% disease control) | – | –
COc1cc(-c2c(Cl)nc3ncnn3c2Cl)cc(OC)c1OC [Example 28] | – | – | 2 (greater than 80% disease control)
Clc1nc2ncnn2c(Cl)c1C1CCCC1 [Example 32] | – | – | 2 (greater than 80% disease control)
Clc1nc2ncnn2c(Cl)c1C1CCCCC1 [Example 33] | – | – | 2 (greater than 80% disease control)
Fc1ccccc1-c1c(Br)nc2ncnn2c1Br [Example 34] | – | – | 2 (greater than 80% disease control)
Clc1ccc(-c2c(Cl)nc3ncnn3c2Cl)c(Cl)c1 [Example 35] | – | – | 2 (greater than 80% disease control)
CC(C)(C)c1ccc(-c2c(Cl)nc3ncnn3c2Cl)cc1 [Example 36] | – | – | 1 (50-80% disease control)
FC(F)(F)c1ccccc1-c1c(Cl)nc2ncnn2c1Cl [Example 39] | – | – | 2 (greater than 80% disease control)
Brc1ccc(-c2c(Br)nc3ncnn3c2Br)cc1 [Example 40] | – | – | 2 (greater than 80% disease control)
